# Source: the supplement of paper PMC9588766
# Where a name gives a salt, the structure may show the parent alone. Over roughly 1,900 compounds, “cell viability of compound + 1 nM pemigatinib relative to pemigatinib-only (DMSO) wells” has its median near 0.95; the lowest 2% begin near 0.22. Some of the results follow.
# System: PDC-DUC18828
# Assay: cell viability of compound + 1 nM pemigatinib relative to pemigatinib-only (DMSO) wells (fraction); PDC-DUC18828 is a patient-derived cholangiocarcinoma cell line; higher = less growth inhibition
# Conditions: first compound 1 µM; pemigatinib concentration 1 nM; 72 h
# Procedure: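 Selleck Bioactive library screen in the patient-derived FGFR2 fusion-positive ICC cell line PDC-DUC18828 (500 cells/well). Each compound was tested at 1 uM with 1 nM pemigatinib, in triplicate, for 72 h. Viability was read by CellTiter-Glo and normalised to plate DMSO controls. Value is the paper's averaged normalised viability.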
row,SMILES,cell viability
1,N=C(N)N/N=C/c1c(Cl)cccc1Cl [Guanabenz Acetate] + CCN1C(=O)N(c2c(F)c(OC)cc(OC)c2F)Cc2cnc3[nH]c(CN4CCOCC4)cc3c21 [pemigatinib],0.91
2,CN(C)CCOC(=O)COc1ccc(Cl)cc1 [Meclofenoxate (Centrophenoxine) HCl] + CCN1C(=O)N(c2c(F)c(OC)cc(OC)c2F)Cc2cnc3[nH]c(CN4CCOCC4)cc3c21 [pemigatinib],0.955
3,Brc1c(NC2=NCCN2)ccc2nccnc12 [Brimonidine Tartrate] + CCN1C(=O)N(c2c(F)c(OC)cc(OC)c2F)Cc2cnc3[nH]c(CN4CCOCC4)cc3c21 [pemigatinib],0.99
4,C[C@H](Oc1cc(-c2cnn(C3CCNCC3)c2)cnc1N)c1c(Cl)ccc(F)c1Cl [(S)-crizotinib] + CCN1C(=O)N(c2c(F)c(OC)cc(OC)c2F)Cc2cnc3[nH]c(CN4CCOCC4)cc3c21 [pemigatinib],0.938
5,CCCCC(=O)N(Cc1ccc(-c2ccccc2-c2nnn[nH]2)cc1)[C@H](C(=O)O)C(C)C.CCOC(=O)[C@H](C)C[C@@H](Cc1ccc(-c2ccccc2)cc1)NC(=O)CCC(=O)O + CCN1C(=O)N(c2c(F)c(OC)cc(OC)c2F)Cc2cnc3[nH]c(CN4CCOCC4)cc3c21 [pemigatinib],0.916
6,Cc1cc(Nc2nc(N[C@@H](C)c3ncc(F)cn3)ncc2Cl)[nH]n1 + CCN1C(=O)N(c2c(F)c(OC)cc(OC)c2F)Cc2cnc3[nH]c(CN4CCOCC4)cc3c21 [pemigatinib],0.62
7,OC[C@H]1O[C@@H](O[C@@H]2[C@@H](CO)OC(O)(CO)[C@H]2O)[C@H](O)[C@@H](O)[C@H]1O (mixture of isomers) [Lactulose] + CCN1C(=O)N(c2c(F)c(OC)cc(OC)c2F)Cc2cnc3[nH]c(CN4CCOCC4)cc3c21 [pemigatinib],1.02
8,CC[C@@H]1/C=C(\C)C[C@H](C)C[C@H](OC)[C@H]2O[C@@](O)(C(=O)C(=O)N3CCCC[C@H]3C(=O)O[C@H](/C(C)=C/[C@@H]3CC[C@H](Cl)[C@H](OC)C3)[C@H](C)[C@@H](O)CC1=O)[C@H](C)C[C@@H]2OC [Pimecrolimus] + CCN1C(=O)N(c2c(F)c(OC)cc(OC)c2F)Cc2cnc3[nH]c(CN4CCOCC4)cc3c21 [pemigatinib],0.982
9,CCN(c1cc(-c2ccc(CN3CCOCC3)cc2)cc(C(=O)NCc2c(C)cc(C)[nH]c2=O)c1C)C1CCOCC1 + CCN1C(=O)N(c2c(F)c(OC)cc(OC)c2F)Cc2cnc3[nH]c(CN4CCOCC4)cc3c21 [pemigatinib],0.92
10,Cn1c([N+](=O)[O-])cnc1COC(N)=O [Ronidazole] + CCN1C(=O)N(c2c(F)c(OC)cc(OC)c2F)Cc2cnc3[nH]c(CN4CCOCC4)cc3c21 [pemigatinib],0.982
11,O=C(O)CC1CC(c2ccccc2)=NO1 (stereo unspecified) + CCN1C(=O)N(c2c(F)c(OC)cc(OC)c2F)Cc2cnc3[nH]c(CN4CCOCC4)cc3c21 [pemigatinib],1
12,CN(C)[C@@H]1C(O)=C(C(N)=O)C(=O)[C@@]2(O)C(O)=C3C(=O)c4c(O)ccc(Cl)c4[C@@H](O)[C@H]3C[C@@H]12 [Demeclocycline HCl] + CCN1C(=O)N(c2c(F)c(OC)cc(OC)c2F)Cc2cnc3[nH]c(CN4CCOCC4)cc3c21 [pemigatinib],0.989
13,C[C@@H]1CN(CC(=O)Nc2ccc3c(c2)Cc2cccc(-c4cc(=O)cc(N5CCOCC5)o4)c2S3)C[C@H](C)O1 + CCN1C(=O)N(c2c(F)c(OC)cc(OC)c2F)Cc2cnc3[nH]c(CN4CCOCC4)cc3c21 [pemigatinib],0.984
14,CCC[C@H](NC(=O)[C@@H]1[C@H]2CCC[C@H]2CN1C(=O)[C@@H](NC(=O)[C@@H](NC(=O)c1cnccn1)C1CCCCC1)C(C)(C)C)C(=O)C(=O)NC1CC1 [Telaprevir (VX-950)] + CCN1C(=O)N(c2c(F)c(OC)cc(OC)c2F)Cc2cnc3[nH]c(CN4CCOCC4)cc3c21 [pemigatinib],1.03
15,CCc1cccc2c3c([nH]c12)C(CC)(CC(=O)O)OCC3 (stereo unspecified) [Etodolac] + CCN1C(=O)N(c2c(F)c(OC)cc(OC)c2F)Cc2cnc3[nH]c(CN4CCOCC4)cc3c21 [pemigatinib],0.975
16,Cc1noc(NS(=O)(=O)c2ccc(N)cc2)c1C [Sulfisoxazole] + CCN1C(=O)N(c2c(F)c(OC)cc(OC)c2F)Cc2cnc3[nH]c(CN4CCOCC4)cc3c21 [pemigatinib],0.963
17,Cc1nc(N)sc1-c1ccnc(Nc2ccc(N3CCOCC3)cc2)n1 + CCN1C(=O)N(c2c(F)c(OC)cc(OC)c2F)Cc2cnc3[nH]c(CN4CCOCC4)cc3c21 [pemigatinib],0.931
18,C[C@]12CC[C@@H]3c4ccc(O)cc4CC[C@H]3[C@@H]1C[C@@H](O)[C@@H]2O [Estriol] + CCN1C(=O)N(c2c(F)c(OC)cc(OC)c2F)Cc2cnc3[nH]c(CN4CCOCC4)cc3c21 [pemigatinib],0.913

row,SMILES,cell viability
1,CC1=C(CC(=O)O)c2cc(F)ccc2/C1=C\c1ccc([S+](C)[O-])cc1 (stereo unspecified) [Sulindac] + CCN1C(=O)N(c2c(F)c(OC)cc(OC)c2F)Cc2cnc3[nH]c(CN4CCOCC4)cc3c21 [pemigatinib],0.983
2,C=CC(=O)Nc1ccc2ncnc(Nc3ccc(OCc4cccc(F)c4)c(Cl)c3)c2c1 + CCN1C(=O)N(c2c(F)c(OC)cc(OC)c2F)Cc2cnc3[nH]c(CN4CCOCC4)cc3c21 [pemigatinib],0.74
3,C=CC(=O)N1CCC[C@@H](n2nc(-c3ccc(Oc4ccccc4)cc3)c3c(N)ncnc32)C1 + CCN1C(=O)N(c2c(F)c(OC)cc(OC)c2F)Cc2cnc3[nH]c(CN4CCOCC4)cc3c21 [pemigatinib],0.893
4,CC(=O)N1CCN(CCOc2ccc(C3CCN(C4=Nn5c(nnc5C(F)(F)F)CC4)CC3)cc2)CC1 + CCN1C(=O)N(c2c(F)c(OC)cc(OC)c2F)Cc2cnc3[nH]c(CN4CCOCC4)cc3c21 [pemigatinib],0.994
5,O=C(O)c1ccccc1C(=O)Nc1ccc(-c2ccccc2)cc1 [Kartogenin] + CCN1C(=O)N(c2c(F)c(OC)cc(OC)c2F)Cc2cnc3[nH]c(CN4CCOCC4)cc3c21 [pemigatinib],0.892
6,CNC(=O)[C@H](Cc1ccccc1)NC(=O)[C@H](CC(C)C)[C@H](CSc1cccs1)C(=O)NO [Batimastat (BB-94)] + CCN1C(=O)N(c2c(F)c(OC)cc(OC)c2F)Cc2cnc3[nH]c(CN4CCOCC4)cc3c21 [pemigatinib],0.933
7,CCOC(=O)[C@H](CCc1ccccc1)N[C@@H](C)C(=O)N1CCC[C@H]1C(=O)O [Enalapril Maleate] + CCN1C(=O)N(c2c(F)c(OC)cc(OC)c2F)Cc2cnc3[nH]c(CN4CCOCC4)cc3c21 [pemigatinib],1
8,Nc1cccc2c1CN(C1CCC(=O)NC1=O)C2=O (stereo unspecified) [Lenalidomide (CC-5013)] + CCN1C(=O)N(c2c(F)c(OC)cc(OC)c2F)Cc2cnc3[nH]c(CN4CCOCC4)cc3c21 [pemigatinib],0.965
9,NC(=S)N/N=C/c1ncccc1N [Triapine] + CCN1C(=O)N(c2c(F)c(OC)cc(OC)c2F)Cc2cnc3[nH]c(CN4CCOCC4)cc3c21 [pemigatinib],0.936
10,COc1ccc2[nH]c([S+]([O-])Cc3ncc(C)c(OC)c3C)nc2c1 (stereo unspecified) [Omeprazole] + CCN1C(=O)N(c2c(F)c(OC)cc(OC)c2F)Cc2cnc3[nH]c(CN4CCOCC4)cc3c21 [pemigatinib],0.985
11,CCS(=O)(=O)Nc1ccc2c(c1)/C(=C(/Nc1ccc(CN3CCCCC3)cc1)c1ccccc1)C(=O)N2 [Hesperadin] + CCN1C(=O)N(c2c(F)c(OC)cc(OC)c2F)Cc2cnc3[nH]c(CN4CCOCC4)cc3c21 [pemigatinib],0.26
12,O=C(Nc1ccc(-c2ccnc(Nc3ccc(N4CCOCC4)cc3)n2)cc1)C1CCCN1 (stereo unspecified) + CCN1C(=O)N(c2c(F)c(OC)cc(OC)c2F)Cc2cnc3[nH]c(CN4CCOCC4)cc3c21 [pemigatinib],0.951
13,COc1nc(-c2ccc3c(c2)OCO3)n(-c2ccc(NC(=O)CSc3ccccc3)cc2)n1 [SecinH3] + CCN1C(=O)N(c2c(F)c(OC)cc(OC)c2F)Cc2cnc3[nH]c(CN4CCOCC4)cc3c21 [pemigatinib],0.954
14,[I-].[K+] [Potassium Iodide] + CCN1C(=O)N(c2c(F)c(OC)cc(OC)c2F)Cc2cnc3[nH]c(CN4CCOCC4)cc3c21 [pemigatinib],1.07
15,Cc1ccccc1N1C(=O)c2cc(S(N)(=O)=O)c(Cl)cc2NC1C (stereo unspecified) [Metolazone] + CCN1C(=O)N(c2c(F)c(OC)cc(OC)c2F)Cc2cnc3[nH]c(CN4CCOCC4)cc3c21 [pemigatinib],1.03
16,Cc1cc(-n2c(=O)[nH]c(=O)n(C)c2=O)ccc1Oc1ccc(SC(F)(F)F)cc1 [Toltrazuril] + CCN1C(=O)N(c2c(F)c(OC)cc(OC)c2F)Cc2cnc3[nH]c(CN4CCOCC4)cc3c21 [pemigatinib],1.04
17,OCCOCCN1CCN(C(c2ccccc2)c2ccc(Cl)cc2)CC1 (stereo unspecified) [Hydroxyzine 2HCl] + CCN1C(=O)N(c2c(F)c(OC)cc(OC)c2F)Cc2cnc3[nH]c(CN4CCOCC4)cc3c21 [pemigatinib],0.996
18,COc1ccc(CNC(=O)Nc2ncc([N+](=O)[O-])s2)cc1 + CCN1C(=O)N(c2c(F)c(OC)cc(OC)c2F)Cc2cnc3[nH]c(CN4CCOCC4)cc3c21 [pemigatinib],0.934
